Source: US20250268880A1, “3-(Hydroxy)-Pyridin-4(1H)-One Compounds and Methods of Making and Using the Same” (Georgia Tech Research Corporation, priority 2018, published 2025)
Like-named read-outs stand apart in the source and are kept apart here.

Tested on: Vero (a non-transformed cell line as control)
Assay: Cell viability assay (MTS), Vero
Type: cell-based
Conditions: 72 h, NI = no inhibition, read-out: Antiproliferative Activity IC50 (μM) VERO

| SMILES | IC50 | IC50 (Chlorocebus sabaeus, Vero) |
| --- | --- | --- |
| COc1ccccc1-c1cn(CCCCn2ccc(=O)c(O)c2C)nn1 [Compound 2g, 3-Hydroxy-1-(4-(4-(2-methoxyphenyl)-1H-1,2,3-triazol-1-y)butyl)-2-methylpyridin-4(1H)-one] | > 50 µM |  |
| Cc1c(O)c(=O)ccn1CCCCCn1cc(-c2ccc(N(C)C)cc2)nn1 [Compound 2r, 1-(5-(4-(4-(Dimethylamino)phenyl)-1H-1,2,3-triazol-1-yl)pentyl)-3-hydroxy-2-methylpyridin-4(11)-one] | > 50 µM |  |
| Cc1c(O)c(=O)ccn1C1CCC(CC2CCC(n3ccc(=O)c(O)c3C)CC2)CC1 (stereo not shown) [drawing 215] | > 50 µM |  |
| CC/C(=C(\c1ccccc1)c1ccc(OCCN(C)Cc2ccc(-c3cn(CCn4ccc(=O)c(O)c4C)nn3)cc2)cc1)c1ccccc1 [Compound 36a] |  | 3.5 µM |
